Paper PMC9217984
These are yes or no findings as the source states them, for the method shown. In cells and extracts the contact can be indirect. Some results given as binding are weak or reduced against the parent protein; the word gives no strength.

Protein sequences, listed by entry. Tags and fused reporters are not part of them. Lines headed by an entry give the natural chain unless they say otherwise; changes in a name come on top. Residues count along the entry.
UniProt Q96FW1: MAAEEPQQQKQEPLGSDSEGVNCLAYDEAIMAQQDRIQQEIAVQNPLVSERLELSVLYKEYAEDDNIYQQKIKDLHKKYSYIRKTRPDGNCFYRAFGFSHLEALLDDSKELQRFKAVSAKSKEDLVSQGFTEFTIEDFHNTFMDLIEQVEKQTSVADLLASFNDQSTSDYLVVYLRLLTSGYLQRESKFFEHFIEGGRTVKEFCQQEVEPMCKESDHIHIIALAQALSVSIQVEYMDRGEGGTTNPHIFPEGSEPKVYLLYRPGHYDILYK
Flag-OTUB1-N (1–80 aa): residues 1-80 of Q96FW1
Flag-OTUB1-C (81–271 aa): residues 81-271 of Q96FW1
UniProt Q16665: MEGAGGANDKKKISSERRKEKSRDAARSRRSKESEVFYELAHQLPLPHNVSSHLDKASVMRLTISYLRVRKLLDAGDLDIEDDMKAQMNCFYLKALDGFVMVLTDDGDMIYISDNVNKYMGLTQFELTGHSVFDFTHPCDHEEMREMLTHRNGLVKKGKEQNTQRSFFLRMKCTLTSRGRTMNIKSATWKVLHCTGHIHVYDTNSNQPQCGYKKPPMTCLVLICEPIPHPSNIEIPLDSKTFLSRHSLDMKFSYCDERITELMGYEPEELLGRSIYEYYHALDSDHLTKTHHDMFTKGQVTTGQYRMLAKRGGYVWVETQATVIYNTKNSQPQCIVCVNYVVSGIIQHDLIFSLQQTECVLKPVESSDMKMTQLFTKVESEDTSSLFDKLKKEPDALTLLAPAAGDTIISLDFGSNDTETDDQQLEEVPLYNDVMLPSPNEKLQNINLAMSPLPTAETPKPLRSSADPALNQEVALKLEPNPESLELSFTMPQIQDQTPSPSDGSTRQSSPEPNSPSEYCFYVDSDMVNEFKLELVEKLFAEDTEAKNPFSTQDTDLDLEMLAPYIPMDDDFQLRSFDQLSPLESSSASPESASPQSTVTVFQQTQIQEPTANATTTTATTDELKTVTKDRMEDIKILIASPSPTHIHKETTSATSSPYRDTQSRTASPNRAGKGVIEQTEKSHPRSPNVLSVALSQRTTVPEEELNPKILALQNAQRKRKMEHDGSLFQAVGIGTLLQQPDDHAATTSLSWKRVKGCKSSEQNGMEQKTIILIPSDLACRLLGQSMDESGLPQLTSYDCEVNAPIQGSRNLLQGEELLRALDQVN

How the values were obtained:
Experiment in all cases: co-IP; HEK293T cells co-transfected, 24 h (normoxia, 21% O2); anti-Flag antibody-conjugated agarose beads for immunoprecipitation, immunoblotting
Flag-OTUB1-N (1–80 aa) = Flag-OTUB1-N (1–80 aa) (UniProt Q96FW1)
Flag-OTUB1-C (81–271 aa) = Flag-OTUB1-C (81–271 aa) (UniProt Q96FW1)
Flag-OTUB1 = Flag-OTUB1 (UniProt Q96FW1)
Flag-OTUB1-D88A = Flag-OTUB1-D88A (UniProt Q96FW1)
Flag-OTUB1-C91A = Flag-OTUB1-C91A (UniProt Q96FW1)

- binding (Flag-OTUB1-N (1–80 aa)): no binding
- binding (Flag-OTUB1-C (81–271 aa)): binds
- binding (Flag-OTUB1): binds
- binding (Flag-OTUB1-D88A): binds
- binding (Flag-OTUB1-C91A): binds
Substance: Myc-HIF-1α (from UniProt Q16665 1-826)
